Data: PubChem BioAssay AID686978 (National Center for Advancing Translational Sciences (NCATS), 2013)
Among all 420,000 compounds or so, about 64,000 (15%) were called active. Inconclusive means that the source gave no clear call. Such entries were picked first, then a sample of the others. The call rests on the fitted dose curve; in most records, active means well fitted inhibition curve with a large enough effect; inconclusive means small, poorly fitted or top-dose-only effect; inactive means flat fitted curve, though single readings scatter. No potency is given beside an inconclusive call; the fits are too rough.

Assay: qHTS for Inhibitors of human tyrosyl-DNA phosphodiesterase 1 (TDP1): qHTS in cells in absence of CPT; further: nearly all actives have a fitted effect of over 55% in size
Conditions: DT40 Tdp1-/- hTDP1 cells, no CPT, ATP luminescence, 48 h; activity change, negative = growth inhibition: at 46.2 µM (top of the series) unless noted
Procedure, shortened: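 Growth of hTDP1-complemented DT40 Tdp1-knockout cells is measured by ATP luminescence after at least 48 hr compound exposure at 37 °C, with DMSO substituting for the 20 nM CPT used in the parallel screen.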
On the % scale 0 is the no-effect control and ±100 the full control effect; potency means the concentration at half of the fitted maximal effect; tags describe the fitted curve by direction and shape.

| SMILES | Potency | activity change, negative = growth inhibition |
| --- | --- | --- |
| COc1ccccc1C(=O)Nc1ccc(S(=O)(=O)N2CCOCC2)cc1 | inconclusive [inhibitor, partial curve] |  |
| COc1cc2c(cc1OC)C(COc1ccc(F)cc1)N(C(=O)c1cccc(F)c1)CC2 (stereo not given) | inconclusive [inhibitor, single point] |  |
| O=C(Cn1ccc([N+](=O)[O-])n1)NCc1ccccc1 |  | inactive: -0.843% |
| Cc1nc2nc(SCC(=O)Nc3ccccc3Cl)nn2c(C)c1Cc1ccccc1 | inconclusive [inhibitor, partial curve] |  |
| COc1ccc(-c2nnc(SCCC(=O)O)n2C)cc1OC |  | inactive: 8.72% |
| CCn1cc(/C=C(\NC(=O)c2cc(OC)c(OC)c(OC)c2)C(=O)NCCN2CCOCC2)c2ccccc21 |  | inactive: 11.3% |
| CC(C)(C)Nc1scc(-c2ccccc2)[n+]1-c1ccccc1 | inconclusive [inhibitor, single point] |  |
| O=C(c1ccccc1)N1N=C(c2ccccc2)CC1c1ccc2nccnc2c1 (stereo not given) | inconclusive [inhibitor, single point] |  |
| C=CCn1c2ccccc2c2nnc(SCC(=O)OC)nc21 | inconclusive [inhibitor, single point] |  |
| CC1c2cc3c(cc2CCN1C(=O)c1cccc(F)c1)OCCCO3 (stereo not given) | inconclusive [inhibitor, full curve] |  |
| CCOCCn1ccc2c(OCC(=O)Nc3cccc([N+](=O)[O-])c3)cccc2c1=O | inconclusive [inhibitor, single point] |  |
| CC1(c2cccc(Br)c2)NC(=O)N(CC(=O)Nc2ccc(F)cc2)C1=O (stereo not given) | inconclusive [inhibitor, partial curve, poor fit] |  |
| O=C(c1ccco1)N(Cc1cc2cc3c(cc2nc1N1CCOCC1)CCC3)CC1CCCO1 (stereo not given) |  | inactive: 1.32% |
| CC(=O)Oc1ccc(CN2C(=O)C(CCc3ccccc3)ON=C2c2cnccn2)cc1 (stereo not given) | inconclusive [inhibitor, single point] |  |
| CCn1cc(C(=O)OCC(=O)Nc2ccc(C(C)C)cc2)c(=O)c2ccc(C)nc21 |  | inactive: -21.7% |
| O=C(CNC(=O)OCc1ccccc1)Oc1cc2oc(=O)cc(-c3ccccc3)c2cc1Cl | active: 8.2 µM |  |
| C=CC[n+]1c(-c2ccc(OCC)cc2)csc1NNC(=O)Nc1ccccc1 | active: 5.8 µM |  |
| O=c1oc2cc(O)ccc2cc1-c1ccccc1 |  | inactive: -19.8% |
| Cc1cc(N(CCO)Cc2ccccc2)n2nc(-c3ccc(C(C)(C)C)cc3)nc2n1 | inconclusive [inhibitor, single point] |  |
| CN1C(=O)CC(C(=O)Nc2ccccc2F)SC1=Nc1ccc2c(c1)OCO2 (stereo not given) |  | inactive: -15% |
| COCCNC(=O)C1CCC(CNS(=O)(=O)c2ccc(F)cc2)CC1 (stereo not given) |  | inactive: -0.738% |
| COc1cc(/C=C/C(=O)O)cc(S(=O)(=O)NCCO)c1OC |  | inactive: -1.26% |
| COc1cccc(-c2nc3nc(C)cc(C)n3c2Nc2ccc3c(c2)OCCO3)c1 | active: 25.9 µM |  |
| COc1ccccc1C(c1nnnn1Cc1ccccc1)N1CCN(c2nc3ccccc3s2)CC1 (stereo not given) | inconclusive [inhibitor, single point] |  |

| SMILES | Potency | activity change, negative = growth inhibition |
| --- | --- | --- |
| CS(=O)(=O)N1CCN(C(=O)Cc2ccccc2Cl)CC1 |  | inactive: -4% |
| CC1CCN(S(=O)(=O)c2ccc(C(=O)Nc3nnc(C4=COCCO4)o3)cc2)CC1 | inconclusive [inhibitor, single point] |  |
| COc1ccc2c3c(c(=O)oc2c1OCC(=O)C(C)(C)C)CCCC3 | inconclusive [inhibitor, single point] |  |
| CCCOc1ccc(C2NC(=S)NC(c3ccccc3)=C2C(=O)Nc2ccc(C)cc2)cc1OC (stereo not given) | inconclusive [inhibitor, single point] |  |
| Cc1c(C(=O)N2CCC2)oc2ccc(Br)cc12 | inconclusive [inhibitor, single point] |  |
| O=C1CSC(=Nc2ccccc2[N+](=O)[O-])N1 | inconclusive [inhibitor, full curve] |  |
| CCCCCCN1C[C@@H](O)[C@H](n2cc(COC(=O)c3ccccc3)nn2)C[C@@H]1c1ccc(C)cc1 | active: 20.6 µM |  |
| COc1cc(/C=N/Nc2nc(C)cc(=O)[nH]2)ccc1OC(=O)c1cccnc1 | inconclusive [inhibitor, partial curve, poor fit] |  |
| COc1cccc(C(=O)Nc2ccccc2OCc2cc(=O)n3ccccc3n2)c1 | inconclusive [inhibitor, single point] |  |
| NC(=O)CC(NC(=O)Cc1ccc(Br)cc1)c1ccc(NCC2CC2)c([N+](=O)[O-])c1 (stereo not given) | inconclusive [inhibitor, partial curve] |  |
| CCN1C(=O)[C@@H]2Cc3c([nH]c4ccccc34)C(c3cc(OC)c(OC)c(OC)c3)N2C1=S (stereo not given in full) | inconclusive [inhibitor, single point] |  |
| Cc1ccc(NC(=O)C2CCCN(S(=O)(=O)c3ccc4[nH]c(=O)ccc4c3)C2)c(C)c1 (stereo not given) | inconclusive [inhibitor, single point] |  |
| COc1ccc(C(=O)Nc2scc(-c3ccc(Cl)cc3Cl)c2C(N)=O)cc1 | active: 14.6 µM |  |
| COc1ccc(Cl)cc1NC(=O)C1CCCN(S(=O)(=O)c2cccc3nonc23)C1 (stereo not given) | inconclusive [inhibitor, full curve, poor fit] |  |
| Cc1cnc2c(C)cccc2c1/C=C/c1ccc(N(C)C)cc1 | inconclusive [inhibitor, single point] |  |
| O=C(COC(=O)CNC(=O)c1sc2ccccc2c1Cl)Nc1c(Cl)cc(Cl)cc1Cl |  | inactive: -15.8% |
| COc1ccc(-c2cc(-c3ccccc3O)[nH]n2)cc1 |  | inconclusive: -34.6% [inhibitor] |
| COc1cccc(OCCNCc2ccccc2)c1 | active: 18.4 µM |  |
| Cc1ccc(N2C(=O)C(Cl)=C(Nc3c(C)n(C)n(-c4ccccc4)c3=O)C2=O)cc1 | active: 13 µM |  |
| CC(OC(=O)CN1C(=O)C2CCCCC2C1=O)C(=O)Nc1ncc(Cl)cc1Cl (stereo not given) |  | inactive: -9.52% |
| O=C(Cn1nc(-c2ccc(Cl)cc2)c2ccccc2c1=O)NN1CCOCC1 |  | inactive: -4.15% |
| COc1ccc(Cc2nc(C(=O)NCc3ccccc3OC)cs2)cc1 | inconclusive [inhibitor, partial curve] |  |
| CCC(=O)Nc1nc2ccc(NC(=O)c3cc(OC)c(OC)c(OC)c3)cc2s1 | active: 20.6 µM |  |
| C=C(C)Cn1c(C)cc(C)c(S(=O)(=O)c2ccc(C)cc2)c1=O | inconclusive [inhibitor, single point] |  |

| SMILES | Potency | activity change, negative = growth inhibition |
| --- | --- | --- |
| Cc1ccc(S(=O)(=O)c2nc(S(C)(=O)=O)sc2NCc2ccc3c(c2)OCO3)cc1 | inconclusive [inhibitor, single point] |  |
| COc1ccccc1CNC(=O)C1COc2ccccc2O1 (stereo not given) | inconclusive [inhibitor, single point] |  |
| CC(C)CC(=O)NC(=S)NNC(=O)c1cccc([N+](=O)[O-])c1 | inconclusive [inhibitor, single point] |  |
| C=CCOc1nc2c(c(=O)n(Cc3ccc(Cl)cc3)c(=O)n2C)n1C | active: 11.6 µM |  |
| COc1cccc(/C=N/Nc2ncnc3scc(-c4ccccc4)c23)c1O | active: 1.46 µM |  |
| CCOC(=O)C1=C(C)N(C)C(=S)NC1c1ccc(Cl)cc1Cl (stereo not given) | inconclusive [inhibitor, single point] |  |
| OCCCCNCc1ccc(OCc2ccccc2Cl)cc1 | inconclusive [inhibitor, single point] |  |
| Cn1c(=O)c2cc(C(=O)NC3CCCCCC3)sc2c2ccccc21 | active: 18.4 µM |  |
| CCCc1ccc(NS(=O)(=O)c2c(C)oc(C)c2C(=O)OC)cc1 | active: 20.6 µM |  |
| Cc1nc2ccc(S(=O)(=O)NC(C(=O)N3CCCCCC3)C(C)C)cc2s1 (stereo not given) |  | inactive: -16.1% |
| COC(=O)c1cc(Nc2cc(C)c3ccc(O)cc3n2)cc(C(=O)OC)c1 |  | inactive: -26.7% |
| CC12CC(NC(=O)N1CCc1ccccc1)c1cc(Cl)ccc1O2 (stereo not given) | active: 20.6 µM |  |
| CN(Cc1ccccc1)C(=O)COC(=O)c1ccccc1NS(=O)(=O)c1cccc(N)c1 | inconclusive [inhibitor, single point] |  |
| COc1ccc([C@@H]2C[C@H]3[C@@H](CN2S(=O)(=O)c2ccccc2)C(=O)C[C@@H](c2ccc(C)cc2)N3S(=O)(=O)c2ccc(C)cc2)cc1 | inconclusive [inhibitor, full curve, poor fit] |  |
| CC(=O)c1cc2c(cc1NC(=O)Cn1nc(-c3ccc(C)cc3)ccc1=O)OCO2 | inconclusive [inhibitor, single point] |  |
| Cc1ccc2oc(-c3ccccc3)c(O)c(=O)c2c1 | inconclusive [inhibitor, single point] |  |
| c1ccc(N2CCN(CC3CCCCC3)CC2)cc1 |  | inactive: 2.73% |
| CC(=O)Nc1ccc(S(=O)(=O)NCc2nc(-c3ccc(C)cc3)no2)cc1 | inconclusive [inhibitor, single point] |  |
| Clc1ccc(/C=N/N2CCN(Cc3ccccc3Cl)CC2)cc1 | inconclusive [inhibitor, single point] |  |
| COc1ccccc1N1CCN(C(=O)C2CCN(S(=O)(=O)c3ccc4c(c3)CC(C)N4C(=O)C3CC3)CC2)CC1 (stereo not given) | inconclusive [inhibitor, single point] |  |
| COc1ccc(NC(=O)CN2CCCC(C)C2)c([N+](=O)[O-])c1 (stereo not given) | inconclusive [inhibitor, partial curve] |  |
| O=C(Cn1ncc2c3ccccc3n(Cc3ccccc3)c2c1=O)NC1CCCCCC1 | active: 3.66 µM |  |
